Test results reported in the CheMixHub viscosity set.
Further values from the same series stand in other lists.

Assay: xn = mol fraction of the nth substance listed
Details: 323.15 K, 101 kPa

CN(C)CCO + O
Details	viscosity [mPa·s]
x1 = 0.05	1.13
x1 = 0.1003	1.875
x1 = 0.1993	3.35
x1 = 0.2947	4.204
x1 = 0.3489	4.37
x1 = 0.4004	4.339
x1 = 0.453	4.193
x1 = 0.504	3.946
x1 = 0.6047	3.408
x1 = 0.7044	2.859
x1 = 0.8062	2.405
x1 = 0.9046	2.02
